Data taken from a collection of fitness landscapes (doi:10.1016/j.celrep.2020.107928).
In all, about 81,000 sequences were measured (“one-hybrid fitness for binding NBS DNA”: median about -0.1, highest 2% from about 0.36 on). Some of the results follow.

B1: Caulobacter ParB omega fusion; a variant is named by its letters at X, in order, B8GW30 (parent)
chain: MESVVVGEPGMSEGRRGLGRGLSALLGEVDAAPAQAPGEQLGGSREAPIEILQRNPDQPRRTFREEDLEDLSNSIREKGVLQPILVRPSPDTAGEYQIVAGERAWRAAQRAGLKTVPIMVRELDDLAVLEIGIIENVQRADLNVLEEALSYKVLMEKFERTQENIAQTIGKSXSHVANXMRLLXLPDEVQSYLVSGELTAXHARAIAAAADPVALAKQIIEGGLSVRETEALARKAPNLSAGKSKGGRPPRVKDTDTQALESDLSSVLGLDVSIDHRGSTGTLTITYATLEQLDDLCNRLTRGI

Variants of: B1
Assay: one-hybrid fitness for binding NBS DNA (the Noc-binding site; scaled: cognate 1, non-cognate 0); higher = stronger binding
Settings: with NBS DNA site
Procedure, shortened: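 The reporter was HIS3, with the binding site 19 bp from the promoter, in E. coli USO used for bacterial one-hybrid selection of Caulobacter ParB libraries with four specificity codons randomised. Growth was on M9 lacking histidine, with 0.1 mM IPTG and 5 mM 3-AT, for 48 hours at 37°C. Illumina sequencing covered plasmids before and after selection; three replicate libraries were pooled and variants with under 10 reads dropped. A fitness score is the log change in variant-to-wild-type read ratio, rescaled to the cognate and non-cognate references.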

Variant	one-hybrid fitness for binding NBS DNA
RGPG	≤ 0.2
GCSC	≤ 0.2
SKAS	≤ 0.2
ECQG	≤ 0.2
RQVI	≤ 0.2
PQQQ	≤ 0.2
PRKC	≤ 0.2
HIIL	≤ 0.2
GTTV	≤ 0.2
RWQR	≤ 0.2
DHDT	≤ 0.2
MLQL	≤ 0.2
HDKT	≤ 0.2
HKSG	≤ 0.2
RAEL	≤ 0.2
TIML	≤ 0.2
SQND	≤ 0.2
LRNH	≤ 0.2
PSTI	≤ 0.2
TDPF	≤ 0.2
MCKG	≤ 0.2
VFTG	≤ 0.2
NRQH	≤ 0.2
DGQC	≤ 0.2
GGFC	≤ 0.2
LRVY	≤ 0.2

Variant	one-hybrid fitness for binding NBS DNA
HIVC	≤ 0.2
NIAV	≤ 0.2
QQLK	≤ 0.2
QIRE	≤ 0.2
PQFV	≤ 0.2
RGVG	≤ 0.2
DRSY	≤ 0.2
DPNG	≤ 0.2
DPDY	≤ 0.2
WSSW	≤ 0.2
NDLT	≤ 0.2
KVKR	0.253
WIYR	≤ 0.2
VPMS	≤ 0.2
LDSG	≤ 0.2
CILC	≤ 0.2
WLTN	≤ 0.2
DVDM	≤ 0.2
YLNV	≤ 0.2
HWDS	≤ 0.2
SHGC	≤ 0.2
DPMT	≤ 0.2
RRSW	≤ 0.2
YPRC	≤ 0.2
RRDV	0.223
GNLR	≤ 0.2

Variant	one-hybrid fitness for binding NBS DNA
HFAY	≤ 0.2
YGMG	≤ 0.2
DESY	≤ 0.2
VCHG	≤ 0.2
SDRL	≤ 0.2
GNRS	≤ 0.2
IRFS	≤ 0.2
NDIF	≤ 0.2
QCPS	0.299
VTNG	≤ 0.2
ETLV	≤ 0.2
GATK	≤ 0.2
PSIV	≤ 0.2
YSRT	≤ 0.2
YAAM	≤ 0.2
ENKT	≤ 0.2
CLTD	≤ 0.2
DGWG	≤ 0.2
LFFR	≤ 0.2
SCYR	≤ 0.2
VNSD	≤ 0.2
QHGC	≤ 0.2
IVTK	≤ 0.2
TFWS	≤ 0.2
QAAF	≤ 0.2
VPPL	≤ 0.2

Variant	one-hybrid fitness for binding NBS DNA
WYYT	≤ 0.2
SCRM	≤ 0.2
NVCR	≤ 0.2
QQVT	0.393
RMAE	≤ 0.2
DVFR	≤ 0.2
HRTK	≤ 0.2
PVAV	≤ 0.2
MGDR	≤ 0.2
SLLP	≤ 0.2
YHGV	≤ 0.2
PTSY	≤ 0.2
QQRP	0.312
EVRG	≤ 0.2
LDRC	≤ 0.2
YKPE	≤ 0.2
HERV	≤ 0.2
MFNV	≤ 0.2
RYVY	≤ 0.2
NASV	≤ 0.2
TANI	≤ 0.2
QSRW	0.254
GCIR	≤ 0.2
VLEM	≤ 0.2
ATYA	≤ 0.2
CPWP	≤ 0.2

Variant	one-hybrid fitness for binding NBS DNA
KLAG	≤ 0.2
TCLF	≤ 0.2
HILC	≤ 0.2
YIPV	≤ 0.2
NTPP	≤ 0.2
EVRT	≤ 0.2
GCVC	≤ 0.2
LYFR	≤ 0.2
QNQW	≤ 0.2
YRQC	≤ 0.2
HVTE	≤ 0.2
LAVT	≤ 0.2
VVAA	≤ 0.2
SAYW	≤ 0.2
TSVA	≤ 0.2
DHAS	≤ 0.2
ANYR	≤ 0.2
VPYL	≤ 0.2
DRWT	≤ 0.2
MHRC	≤ 0.2
IPPT	≤ 0.2
RHIH	≤ 0.2
QHNV	≤ 0.2
RLDS	≤ 0.2
RMRT	0.633
QIPI	≤ 0.2

Variant	one-hybrid fitness for binding NBS DNA
DCKT	≤ 0.2
CATG	≤ 0.2
PVHT	≤ 0.2
TCAA	≤ 0.2
FTIV	≤ 0.2
SHAE	≤ 0.2
FSTL	≤ 0.2
PSMY	≤ 0.2
LDFN	≤ 0.2
RRCI	≤ 0.2
AEFV	≤ 0.2
ATSG	≤ 0.2
HGFG	≤ 0.2
MTTV	≤ 0.2
DATR	≤ 0.2
ADAS	≤ 0.2
PHKS	≤ 0.2
LMLS	≤ 0.2
NSYC	≤ 0.2
SGPV	≤ 0.2
QEVF	≤ 0.2
PKIK	≤ 0.2
HKAN	≤ 0.2
